The values that follow come from patent US20100249184A1 (MOUNT SINAI SCHOOL OF MEDICINE, published 2010).

The chains are these.
B1: uPAR^S245A, full-length glycolipid-anchored, expressed on cells (receptor)
chain: not shown
modifications: GPI anchor
B2: soluble uPAR ([…]) E33A (receptor)
chain: not shown
modifications: glycosylated (expressed in CHO cells)
notes: range […]; Mutation in domain I; also called suPAR^E33A
B3: soluble uPAR ([…]) L66A (receptor)
chain: not shown
notes: range […]
B4: soluble uPAR ([…]) H249A (receptor)
chain: not shown
notes: range […]; also called suPAR^H249A
B5: soluble uPAR ([…]) S245A (receptor)
chain: not shown
notes: range […]; also called suPAR^S245A; S245A mutant uPAR
B6: soluble uPAR ([…]) R239A (receptor)
chain: not shown
notes: range […]; also called suPAR^R239A

The target in one experiment is α5β1-integrin endogenous on HEK293, D-HEp3 and T-HEp3 cells (human, UniProt P08648 42-1049; P05556). Kind of experiment: cell-based or functional assay.
Chain of UniProt P08648 (P08648 42-1049, chain 1 of 2): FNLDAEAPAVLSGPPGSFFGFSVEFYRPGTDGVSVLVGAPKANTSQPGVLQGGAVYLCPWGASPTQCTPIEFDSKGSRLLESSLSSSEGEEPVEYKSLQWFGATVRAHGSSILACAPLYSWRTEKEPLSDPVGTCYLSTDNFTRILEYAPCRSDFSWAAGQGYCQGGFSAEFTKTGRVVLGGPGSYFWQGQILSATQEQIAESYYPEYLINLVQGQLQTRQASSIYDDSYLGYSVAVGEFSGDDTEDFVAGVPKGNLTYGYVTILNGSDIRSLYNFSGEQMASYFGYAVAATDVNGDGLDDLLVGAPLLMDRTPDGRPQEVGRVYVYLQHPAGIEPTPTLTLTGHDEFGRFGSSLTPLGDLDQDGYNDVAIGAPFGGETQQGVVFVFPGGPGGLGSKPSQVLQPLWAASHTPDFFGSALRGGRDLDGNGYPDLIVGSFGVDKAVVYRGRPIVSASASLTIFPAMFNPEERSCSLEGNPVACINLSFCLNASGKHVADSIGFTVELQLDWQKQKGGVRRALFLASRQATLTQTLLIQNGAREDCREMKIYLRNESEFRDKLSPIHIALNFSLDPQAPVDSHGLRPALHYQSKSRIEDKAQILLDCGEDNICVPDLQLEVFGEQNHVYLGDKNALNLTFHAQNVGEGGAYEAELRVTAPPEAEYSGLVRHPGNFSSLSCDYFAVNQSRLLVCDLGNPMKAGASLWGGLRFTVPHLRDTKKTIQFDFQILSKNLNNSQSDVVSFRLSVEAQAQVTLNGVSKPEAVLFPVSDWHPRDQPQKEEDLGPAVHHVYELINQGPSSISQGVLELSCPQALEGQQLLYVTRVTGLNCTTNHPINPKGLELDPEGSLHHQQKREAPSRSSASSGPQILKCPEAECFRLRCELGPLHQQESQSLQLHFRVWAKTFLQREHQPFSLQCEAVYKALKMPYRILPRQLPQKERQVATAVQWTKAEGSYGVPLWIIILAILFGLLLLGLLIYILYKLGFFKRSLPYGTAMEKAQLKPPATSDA
Chain of UniProt P08648 (P05556 21-798, chain 2 of 2, further chain): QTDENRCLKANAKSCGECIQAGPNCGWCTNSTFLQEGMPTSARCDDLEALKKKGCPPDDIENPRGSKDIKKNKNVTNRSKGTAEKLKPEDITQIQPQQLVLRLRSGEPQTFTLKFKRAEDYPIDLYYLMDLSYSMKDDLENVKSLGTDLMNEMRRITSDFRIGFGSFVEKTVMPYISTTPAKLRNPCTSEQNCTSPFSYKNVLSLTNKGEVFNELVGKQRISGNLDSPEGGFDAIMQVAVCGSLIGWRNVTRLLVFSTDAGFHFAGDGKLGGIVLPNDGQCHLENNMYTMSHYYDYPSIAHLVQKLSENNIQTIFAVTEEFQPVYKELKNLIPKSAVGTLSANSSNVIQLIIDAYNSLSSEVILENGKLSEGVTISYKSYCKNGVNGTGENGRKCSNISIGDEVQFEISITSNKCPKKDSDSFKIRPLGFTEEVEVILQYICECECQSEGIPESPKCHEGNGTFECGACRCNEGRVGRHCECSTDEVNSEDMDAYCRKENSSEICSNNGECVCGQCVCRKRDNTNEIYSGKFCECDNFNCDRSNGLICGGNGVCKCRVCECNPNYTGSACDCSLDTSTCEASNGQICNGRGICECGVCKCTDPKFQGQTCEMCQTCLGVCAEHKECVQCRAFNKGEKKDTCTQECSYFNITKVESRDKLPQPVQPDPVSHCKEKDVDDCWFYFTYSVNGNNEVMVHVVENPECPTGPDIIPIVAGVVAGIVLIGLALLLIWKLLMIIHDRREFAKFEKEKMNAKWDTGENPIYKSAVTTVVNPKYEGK
In the case of B1, the “adhesion of transfected HEK293 cells to fibronectin, fold over vector-transfected cells, 15 and 30 min” value is 1.2 fold; the “ratio of P-ERK to ERK, fold relative to vector control, D-HEp3 cells” value was found to be 1.9 fold; the “ratio of P-ERK to ERK, fold relative to vector control, HEK293 cells” value came out at 1.2 fold.

A further experiment concerns the target T1, pro-uPA^S356A (UniProt P00749).
T1 construct: Coupled to the Biacore chip by EDC/NHS (200-1000 RU); also called immobilized pro-uPA
The experiment can be described thus: SPR, pro-uPA S356A immobilized; against uPAR wt. In general terms: SPR reads the build-up and loss of mass on a sensor chip optically.
Take B2: the “ΔΔG = RT ln[Kd(mut)/Kd(wt)]” value worked out at 0.37 kcal/mol.
Same read-out and setting: for B3 the value was 1.35 kcal/mol.
On the same count and under the same terms, as for B4, the figure is 0.05 kcal/mol.
On the same count and under the same terms, for B5 the value was -0.08 kcal/mol; for B6, 0.19 kcal/mol.

For another experiment, the target named is T1, pro-uPA^S356A. The experiment can be described thus: SPR (Biacore 3000, 20 °C), pro-uPA S356A immobilized, soluble uPAR 1-100 nM as analyte.
What is called koff is the rate constant with which the complex falls apart. Higher therefore signals a short-lived complex. In general, kon refers to the rate constant with which the complex forms. A lower kon goes with slower complex formation. The molecule B2 registered a koff of 0.000219 s⁻¹ and a kon of 252000 M⁻¹ s⁻¹.
In the same order, the values of B3 are 0.00106 s⁻¹ and 226000 M⁻¹ s⁻¹.
Consider B4, for which the koff turned out to be 0.000192 s⁻¹ and the kon amounted to 384000 M⁻¹ s⁻¹.
For B5, the koff is 0.000214 s⁻¹ and the on-rate constant (kon) was 528000 M⁻¹ s⁻¹.
The molecule B6 had a koff of 0.000148 s⁻¹ and a kon of 233000 M⁻¹ s⁻¹.

A further experiment has as its target T1, pro-uPA^S356A. The experiment can be described thus: SPR (Biacore 3000, 20 °C), pro-uPA S356A immobilized, soluble uPAR 1-100 nM as analyte; Kd = koff/kon.
Usually Kd stands for the free concentration of one partner at which half of the binding sites on the other are occupied at equilibrium, for simple one-to-one binding. In turn, B2 returned a Kd of 0.87 nM.
As for B3, the affinity, expressed as Kd, was 4.7 nM.
Take B4: the Kd was 0.5 nM.
Same read-out and setting: as for B5, the figure is 0.41 nM.
B6 gave a Kd of 0.64 nM.
